B1: GBRAP_160_4086 (protein)
chain: SAAAKALIKEVQEIFDEAIEMMKDVSVEEAVNIALVALGEVALLIEEAEFLSEADKDALLALIDAGEAAIRAAADKSVEDIIALLQAFRDEIVAAIEAAD
B2: GBRAP_52_6297 (protein)
chain: MREEARRIARELVELAKAGDREGLERKVREIVETKSEEFLRLIAEELAEMAARADEETIDVIFEVMELLADEMIEGGYDEAFAEDLLARVARAGYENELR
B3: GBRAP_52_6295 (protein)
chain: MEEEAKAIADAIVEAAKAGDEETARALLREAAETKSLEFLRMVAEVLAEKAANSDEETRDIIFKVMEMFEEVMIEAGIPEEEAEDWLYRVAKAMYEAELK
B4: GBRAP_128_3259 (protein)
chain: MNEEIEKKAREFVEKLKNSDKEEKKKIAEEFAEWLASVSDEEAEQAIDVVESRLDELSAEDLEILADVLRKHLPKLSPEKARLAADLEVAALNEAEEKEE
B5: GBRAP_137_3666 (protein)
chain: MLEAEIEVENGLAFARLTYKGKKEEAEKLAEVIEDVAGKIPGIAVSVKIEEDGTLEADLFGTLEEVMKALKEIAKEMNIDVKVTLKDLETGEVREETIKA
B6: GBRAP_52_6051 (protein)
chain: MRERLAALAREALAAVRAGDLERARALLREVFETLSDEELELFVEELARLAREARPEDFDAVARLVELAEEEALEAGRPEEFADLLAARVYAALYEAEQR
B7: GBRAP_53_6422 (protein)
chain: KEAEIAALKAQIRELTEQATKAGPAERAALAAQIGAAFAELKAAGMPDEELTELAKEVAEKLKAAGADPADLVALAKAMEALGLEEATAEIGEVIVEDLE
B8: GBRAP_52_6197 (protein)
chain: MRERLRALAQEVVELVKAGREEEAEALLREAAETLSLEELRALGEEFAALAREAAPEDFDAVFRAAELFAEVLEEEGIPEVLADDLLARVAAALYEREQA
B9: GBRAP_166_4891 (protein)
chain: STAEAIAQIRALAAATIARIASLTDEELLASFIDMVEIVEAAGATPELRAALAAEFARIVAAAVAAGRDWARVESLALAAVGDDEELLDAVEAALAAARA
B10: GBRAP_52_6156 (protein)
chain: AEARAQAYADELIALVKAGDEAGIEALLREIAATLSEEEITLMMDIVAEQVATLSPEQQERVVEAAIRLEDILIEAGHDENLASYQTARVAGAAYKALQA
B11: GBRAP_184_5332 (protein)
chain: KTLEVHIENLPIEEIIKKVEEAAKKAAEEGADLLISIDASGYSIEEIIELIKKIGEIAKKYGVKNVTLGIDKEVNEEEADKLIEEADKYGIRLVLPLKDE
B12: GBRAP_160_4557 (protein)
chain: SEEKKKAIEEIRELLEEAIEEMKTLSPAEIVTLARGTLGEALAIVFENDAFTDEEEDVAGEKADAAEAALRAAAAASPEELVALAREKAEELVEALEELE
B13: GBRAP_11_2632 (protein)
chain: KKETLKKAAELAKKAKEVLKQLKEKGVDDEELLKKLEELLEELEKLVKKIGDKALENDVKVAKELLEEAKADPENKEFYVNLLLAQIEIIEAELEEKIEE
B14: GBRAP_80_6831 (protein)
chain: MEERLEAAIEAIREIDPEIAEVVEEIVRLAREMGVPLERLARMAEAVLELAKKDKEKALELVRRALEEVRAAAAEGNAEEVAAILAELESDALLAVEELE
B15: GBRAP_166_4954 (protein)
chain: NLEEVIKETKEYIDELAEKMKTANEEEKLELYAEMAEKIQEAKDAGVSNEDILELIKYAMKKVKEVGGSVDQFMGAIDMFVDLSEEELDIVYAEADKVKA
B16: GBRAP_128_3480 (protein)
chain: STEEAVEETKKLMEEIKNSSLEEVKELSKKLVELLNSLNKEEREAVTEVIIEMLPELSVEKLEILADVFREKRPELDEFTAIEVADIEIEALMEALEKEE
B17: GBRAP_128_3572 (protein)
chain: SAEETLERARELIERIITSDLEEARRAAEELFRLIGESDAETRERIEELVLAALPQLTREKLEVLADVARRLRPELDPLGAEVAADIEVAALNEAEELEE
B18: GBRAP_80_6763 (protein)
chain: MMEELEEALEELSELLPELAEELRATVEALLELGVPVEDLLRLLKALVELAKLDKEKAEAILREFIAEVNEAIARGDLEEARALVIDAESDALLEVEELE
B19: GBRAP_11_2734 (protein)
chain: KKEKLEEVKELAEKAAEAAEELLKRGVDDEELRKKIEELLKELREKVEELEDEFLKELVEIAEEEFRESLADPENAEEYLERARAALRVLAGQVQLLIDE
B20: GBRAP_125_3093 (protein)
chain: HMEEILAALRRLALALGYSEEDAELLAELAANSSVRQTLYALFEAEGYEEVAELVEKLTEEQAEAVLLRLAAWLDEHPDASKEEVVEQAKALIEEALAAA
B21: GBRAP_53_6388 (protein)
chain: REEEIERLVREYRELLERIREAGPEEAVRLGEEARELLVELARLGADDETLERLAREFAELVEEHPELEPLALELAKELAALGREEAAGILAERLVEELE
B22: GBRAP_139_3735 (protein)
chain: AEAEAKIAEAVALTRRSVATGGAYVAELAALLASMDEETAEEALEAMAEVLKAEDFDTVEALFDALIDTLLTEHDDEDLATMAEAARNRALAEVAVREEA
B23: GBRAP_186_5387 (protein)
chain: EEEAEKELDKVIEEAEAKGYRVIVAYLENKSVEETKAAIRREAEAVAALAKETGKKYALIVVVKTKKEDIEEIKAFADELNKEYLAKTGVEVYVVAEDSE
B24: GBRAP_53_6423 (protein)
chain: MEERIERLKEEIRRATEEATKADAARRAELVKRIGELFKELKEAGAPEEELEELAREVAEKLAAAGAPVSDLVALANTMAELGLEEGTAAIGEVIVEDLE
B25: GBRAP_83_6996 (protein)
chain: KEKVAVAAHGDHLIEAAEIAIELTKEEGKEVVLEFITTPEDREKVLEAVKLLAEAGIETEIIVIGLNMTEEEAEELKKEMEEIAKAAGVNIKIEVYLEEL
B26: GBRAP_160_3979 (protein)
chain: SAEIEALKKEIEEIFEEAKEMIEGESFEERLAIIAVAVGEIILLLEENPLVSDEAVEKVAEIGDELIEYLKENPDLTEEEIKEKIEEALEKIKKVIEEDA
B27: GBRAP_195_5415 (protein)
chain: MKVATVVVTIEASDTPEEIVKKILEKVKEAVAKGAKTVVVVVKRDPKVPEETVLKAVEEVKKKLPDVNITVEVFDDPSLTDEQLQKIGEALAATIEEELE
B28: GBRAP_160_4664 (protein)
chain: SEEIEKLLEEIRELLLETLDWTKDLDPASREALLRAAVGDVLQLLFENPLVTDEVEDYAEEVLEEMREYVLANPDLTDEEREALVDEVVDKIREKILEES
B29: GBRAP_128_3378 (protein)
chain: INEERLKEIRELAEAAIKSDVETTAELTKKIVELMGKLSPEEREEAAEIVISLLPKFSEEKLEAIADTIREQRPKLDPLGQLLANEVEVEALNEAEELEE

Consider 29 molecules from the supplement of paper PMC12632987.

In all, about 4,500 sequences were measured (“median log2 fold change of GCK-ALFA target abundance (FLAG IP / Myc IP barcode read proportion)”: median about 0.078, lowest 2% from about -0.6 on). The list shows a part of the results.

GABARAP, O95166, sequence (O95166 whole entry, the tested form may be a part): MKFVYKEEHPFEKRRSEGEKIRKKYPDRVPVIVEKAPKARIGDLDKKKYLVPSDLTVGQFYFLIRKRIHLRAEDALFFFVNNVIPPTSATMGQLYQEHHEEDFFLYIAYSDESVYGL

This assay concerns the target GABARAP, O95166. The assay can be described thus: median log2 fold change of GCK-ALFA target abundance (FLAG IP / Myc IP barcode read proportion) (log2 ratio); each designed protein is fused to an ALFA-tag nanobody in HEK293 cells to bring the named protein to FLAG-tagged glucokinase (GCK); Myc marks an untargeted standard; higher = target protein stabilised (more abundant). Particulars: target protein: 3xFLAG-MCP-GCK-ALFA reporter; HEK293 landing pad (RPLP). The method, boiled down:
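Sequencing of reverse-transcribed, amplified circular RNA barcodes from anti-FLAG and anti-Myc immunoprecipitates provided the readout for an ALFA-nanobody-fused binder library recombined into HEK293 landing-pad cells. Those cells were induced with 2 μg mL^−1 doxycycline, transfected with a plasmid expressing a FLAG-tagged target and a Myc-tagged standard, and lysed after 48 h. Target abundance is the per-binder median log2 ratio of FLAG to Myc barcode read proportions. Only barcodes at a proportion of ≥10^−7 in both replicates and binders with ≥3 barcodes per replicate were kept, with a 10^−6 pseudocount added before the two replicates were pooled.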
As to B1, the “median log2 fold change” value is 0.000671.

For B2, the “median log2 fold change” value is -0.247.

Take B3: the “median log2 fold change” value came out at 0.141.

Turning to B4, the “median log2 fold change” value was determined as 0.31.

Turning to B5, the “median log2 fold change” value was 0.331.

Regarding B6, the “median log2 fold change” value came to 0.0249.

Regarding B7, the “median log2 fold change” value was determined as 0.285.

In the case of B8, the “median log2 fold change” value amounted to 0.0944.

For the molecule B9, the “median log2 fold change” value turned out to be 0.118.

As for B10, the “median log2 fold change” value is -0.134.

Regarding B11, the “median log2 fold change” value is -0.598.

For the molecule B12, the “median log2 fold change” value was 0.212.

Regarding B13, the “median log2 fold change” value amounted to 0.00505.

As for B14, the “median log2 fold change” value is 0.2.

Take B15: the “median log2 fold change” value stood at 0.135.

Take B16: the “median log2 fold change” value was -0.289.

Regarding B17, the “median log2 fold change” value worked out at 0.225.

Turning to B18, the “median log2 fold change” value was found to be 0.0537.

For the molecule B19, the “median log2 fold change” value worked out at 0.112.

In the case of B20, the “median log2 fold change” value is 0.0462.

Take B21: the “median log2 fold change” value stood at 0.222.

As to B22, the “median log2 fold change” value was found to be 0.139.

As to B23, the “median log2 fold change” value was found to be 0.214.

With B24, the “median log2 fold change” value is 0.379.

As to B25, the “median log2 fold change” value is -0.155.

Turning to B26, the “median log2 fold change” value is -0.425.

On to B27, for which the “median log2 fold change” value is 0.229.

With B28, the “median log2 fold change” value was -0.406.

Take B29: the “median log2 fold change” value is 0.172.
